# The list shows a part of the results.
# B1: PhoQ; a variant is named by its letters at X, in order, P23837 (parent)
# chain: MKKLLRLFFPLSLRVRFLLATAAVVLVLSLAYGMVALIGYSVSFDKTTFRLLRGESNLFYTLAKWENNKLHVELPENIDKQSPTMTLIYDENGQLLWAQRDVPWLMKMIQPDWLKSNGFHEIEADVNDTSLLLSGDHSIQQQLQEVREDDDDAEMTHSVAVNVYPATSRMPKLTIVVVDTIPVELKSSYMVWSWFIYVLSANLLLVIPLLWVAAWWSLRPIEALAKEVRELEEHNRELLNPATTRELTSLVRNLNRLLKSERERYDKYRTTLTDLTHSLKTPLXXLQXXLRSLRSEKMSVSDAEPVMLEQISRISQQIGYYLHRASMRGGTLLSRELHPVAPLLDNLTSALNKVYQRKGVNISLDISPEISFVGEQNDFVEVMGNVLDNACKYCLEFVEISARQTDEHLYIVVEDDGPGIPLSKREVIFDRGQRVDTLRPGQGVGLAVAREITEQYEGKIVAGESMLGGARMEVIFGRQHSAPKDE
# Variants of: B1
# Assay: enrichment ratio after two sorts for PhoP signalling (ratio (wild type AVST 3.29)); higher = more functional
# Details: with PhoP (E. coli)
row,Variant,enrichment ratio
1,NDQI,1.1
2,STEL,≤ 0.25
3,SMKW,≤ 0.25
4,MVHI,≤ 0.25
5,GKST,≤ 0.25
6,GLFT,≤ 0.25
7,FCWA,≤ 0.25
8,ITLW,≤ 0.25
9,WNGI,≤ 0.25
10,IYYH,≤ 0.25
11,WDFQ,≤ 0.25
12,IFWR,≤ 0.25
13,RYQK,≤ 0.25
14,YWMT,≤ 0.25
15,WQLY,≤ 0.25
16,LKVK,≤ 0.25
17,TKRW,≤ 0.25
18,LYRY,≤ 0.25
19,KPQY,≤ 0.25
20,WQWC,≤ 0.25
21,YTWY,≤ 0.25
22,EARQ,≤ 0.25
23,FILM,9.92
24,FNNI,≤ 0.25

row,Variant,enrichment ratio
1,KEME,≤ 0.25
2,KKDV,≤ 0.25
3,QDPL,≤ 0.25
4,YCIW,≤ 0.25
5,PVPQ,≤ 0.25
6,PYNL,≤ 0.25
7,MLMY,≤ 0.25
8,GISA,13
9,RRYD,≤ 0.25
10,WPAS,≤ 0.25
11,RESY,≤ 0.25
12,YQHC,≤ 0.25
13,NCWS,≤ 0.25
14,MFTC,≤ 0.25
15,ERWF,≤ 0.25
16,VDRK,≤ 0.25
17,CFFF,≤ 0.25
18,YPVE,≤ 0.25
19,SFWA,≤ 0.25
20,ISTE,≤ 0.25
21,RHHC,≤ 0.25
22,IVEF,≤ 0.25
23,MGTG,≤ 0.25
24,TEIM,8.17

row,Variant,enrichment ratio
1,PGCL,≤ 0.25
2,NATD,≤ 0.25
3,QDVF,≤ 0.25
4,YQGS,≤ 0.25
5,PWSH,≤ 0.25
6,WPSY,≤ 0.25
7,ASCD,≤ 0.25
8,DFFT,≤ 0.25
9,WHFM,≤ 0.25
10,YFFI,≤ 0.25
11,EDMT,≤ 0.25
12,KNHA,≤ 0.25
13,HFDQ,≤ 0.25
14,QAHM,22.3
15,MCRD,≤ 0.25
16,HAVP,≤ 0.25
17,FFAH,≤ 0.25
18,DMSG,≤ 0.25
19,AWGI,≤ 0.25
20,GSGF,≤ 0.25
21,GPRI,≤ 0.25
22,FTNI,≤ 0.25
23,QVVI,≤ 0.25
24,AFWT,≤ 0.25

row,Variant,enrichment ratio
1,TVWK,≤ 0.25
2,ASQM,2.47
3,KIIH,≤ 0.25
4,WSYH,≤ 0.25
5,EVYG,≤ 0.25
6,RFYV,≤ 0.25
7,ASWL,5.05
8,WESI,≤ 0.25
9,GELY,9.1
10,PQTN,≤ 0.25
11,AAGE,≤ 0.25
12,QTRA,≤ 0.25
13,DMMI,≤ 0.25
14,NVHR,≤ 0.25
15,PEFQ,≤ 0.25
16,LTVH,≤ 0.25
17,AMWA,≤ 0.25
18,TECT,5.22
19,VQIE,≤ 0.25
20,FWFW,≤ 0.25
21,KQNM,≤ 0.25
22,YNNP,≤ 0.25
23,YFKP,≤ 0.25
24,LNKS,≤ 0.25

row,Variant,enrichment ratio
1,SNGW,1.05
2,QDHG,≤ 0.25
3,LGDP,≤ 0.25
4,YFHT,≤ 0.25
5,RDTV,≤ 0.25
6,GEGY,≤ 0.25
7,EIMF,≤ 0.25
8,PERY,≤ 0.25
9,WPQR,≤ 0.25
10,YQND,≤ 0.25
11,PWLA,≤ 0.25
12,HPFT,≤ 0.25
13,KAYW,≤ 0.25
14,LKQT,≤ 0.25
15,PCHG,≤ 0.25
16,QDLW,≤ 0.25
17,KHSS,≤ 0.25
18,KYLP,≤ 0.25
19,GGLK,≤ 0.25
20,IYDY,≤ 0.25
21,YLTY,≤ 0.25
22,FYVD,≤ 0.25
23,INTI,≤ 0.25
24,QVNR,≤ 0.25

row,Variant,enrichment ratio
1,HQVS,≤ 0.25
2,NWRS,1.15
3,EISI,1.12
4,NWSE,≤ 0.25
5,FLQA,≤ 0.25
6,PDCL,≤ 0.25
7,MYLF,≤ 0.25
8,KCDW,≤ 0.25
9,MGWK,≤ 0.25
10,VWPV,≤ 0.25
11,EAYI,≤ 0.25
12,LLAE,≤ 0.25
13,DEEP,≤ 0.25
14,HFSK,≤ 0.25
15,KEID,≤ 0.25
16,DCEL,≤ 0.25
17,IIKL,≤ 0.25
18,NRMT,≤ 0.25
19,QRLL,≤ 0.25
20,QAKW,≤ 0.25
21,TFVI,≤ 0.25
22,YPKH,≤ 0.25
23,DQPW,≤ 0.25
24,GPGH,≤ 0.25

row,Variant,enrichment ratio
1,QYIM,≤ 0.25
2,GYLS,≤ 0.25
3,LWPL,≤ 0.25
4,YYGK,≤ 0.25
5,IYQV,≤ 0.25
6,IDQE,≤ 0.25
7,RMMH,≤ 0.25
8,YHHD,≤ 0.25
9,KSKH,≤ 0.25
10,GGDE,≤ 0.25
11,WLWC,≤ 0.25
12,DYKK,≤ 0.25
13,LTDN,≤ 0.25
14,PWNC,≤ 0.25
15,ERSS,≤ 0.25
16,SPHR,≤ 0.25
17,GDMA,≤ 0.25
18,ILIR,≤ 0.25
19,MLNW,≤ 0.25
20,MQVP,≤ 0.25
21,NIWH,≤ 0.25
22,SAYS,≤ 0.25
23,ITSK,≤ 0.25
24,RSQL,≤ 0.25

row,Variant,enrichment ratio
1,GYWG,≤ 0.25
2,PHTV,≤ 0.25
3,TARQ,≤ 0.25
4,IHPG,≤ 0.25
5,AMKH,≤ 0.25
6,GSNP,≤ 0.25
7,AGVH,5.83
8,IFDE,≤ 0.25
9,THKR,≤ 0.25
10,KIHP,≤ 0.25
11,ETES,≤ 0.25
12,GVPQ,≤ 0.25
13,HWTA,≤ 0.25
14,LNGY,≤ 0.25
15,DQAP,≤ 0.25
16,EMKN,≤ 0.25
17,YSTM,9.87
18,FWVP,≤ 0.25
19,FQGH,≤ 0.25
20,MAYE,33.3
21,EGVS,≤ 0.25
22,DSCQ,≤ 0.25
23,PDLH,≤ 0.25
24,ECAP,≤ 0.25

row,Variant,enrichment ratio
1,RMMP,≤ 0.25
2,VFRC,≤ 0.25
3,RGWQ,≤ 0.25
4,HSGE,≤ 0.25
5,VNMD,≤ 0.25
6,ADIG,≤ 0.25
7,WRTC,≤ 0.25
8,QETS,≤ 0.25
9,INEL,≤ 0.25
10,HCKF,≤ 0.25
11,AVMN,18.8
12,KRTQ,≤ 0.25
13,DHFV,≤ 0.25
14,KGWR,≤ 0.25
15,VSPF,≤ 0.25
16,GRGT,≤ 0.25
17,HLVD,≤ 0.25
18,SYKS,≤ 0.25
19,YVRQ,≤ 0.25
20,VRYG,≤ 0.25
21,FFWL,≤ 0.25
22,GFFS,≤ 0.25
23,DEHP,≤ 0.25
24,TFTN,1.1

row,Variant,enrichment ratio
1,FLAP,≤ 0.25
2,QEWL,9.38
3,DQLF,≤ 0.25
4,AWHN,≤ 0.25
5,HVSR,≤ 0.25
6,MYTM,≤ 0.25
7,EKRI,≤ 0.25
8,FSRN,≤ 0.25
9,CLLN,≤ 0.25
10,QLAQ,≤ 0.25
11,QKPN,≤ 0.25
12,HVYI,≤ 0.25
13,LWLC,≤ 0.25
14,FDWK,≤ 0.25
15,LDLL,0.331
16,PYGY,≤ 0.25
17,KVPE,≤ 0.25
18,LCIL,≤ 0.25
19,SWGR,≤ 0.25
20,DVNC,≤ 0.25
21,HYVP,≤ 0.25
22,IPHM,≤ 0.25
23,GDRT,≤ 0.25
24,VVTM,≤ 0.25

row,Variant,enrichment ratio
1,RMDK,≤ 0.25
2,KKSE,≤ 0.25
3,KYTE,≤ 0.25
4,KGGR,≤ 0.25
5,FWKH,≤ 0.25
6,QAQP,≤ 0.25
7,YYRN,≤ 0.25
8,FPSC,≤ 0.25
9,IIMP,≤ 0.25
10,SAVS,1.31
11,QIRH,≤ 0.25
12,IILQ,≤ 0.25
13,SNMG,12.5
14,DEDF,≤ 0.25
15,EKFR,≤ 0.25
16,PITL,≤ 0.25
17,LNDM,≤ 0.25
18,EQAR,≤ 0.25
19,HTPG,≤ 0.25
20,GGVW,≤ 0.25
21,FTAE,≤ 0.25
22,EQVL,≤ 0.25
23,NPTT,≤ 0.25
24,WVFW,≤ 0.25

row,Variant,enrichment ratio
1,LATG,≤ 0.25
2,EHKF,≤ 0.25
3,SDIM,3.43
4,VQNP,≤ 0.25
5,EHPA,≤ 0.25
6,QTFA,≤ 0.25
7,QDVC,≤ 0.25
8,SRDQ,≤ 0.25
9,EICS,≤ 0.25
10,DELR,≤ 0.25
11,NNQY,≤ 0.25
12,FDHM,≤ 0.25
13,VIPW,≤ 0.25
14,IDVA,≤ 0.25
15,DISM,≤ 0.25
16,QFCR,≤ 0.25
17,IVCL,≤ 0.25
18,PVNQ,≤ 0.25
19,RNCS,≤ 0.25
20,AGPH,≤ 0.25
21,VRGS,≤ 0.25
22,WVHV,≤ 0.25
23,DPID,≤ 0.25
24,EWLF,≤ 0.25

row,Variant,enrichment ratio
1,TNPD,≤ 0.25
2,RIIN,≤ 0.25
3,RARC,≤ 0.25
4,VCWS,≤ 0.25
5,GGRC,≤ 0.25
6,NIMP,≤ 0.25
7,QRGT,≤ 0.25
8,VVCE,≤ 0.25
9,FFWV,≤ 0.25
10,NECN,≤ 0.25
11,VVQL,≤ 0.25
12,DTIG,≤ 0.25
13,ESTT,≤ 0.25
14,VLQW,≤ 0.25
15,VVIL,≤ 0.25
16,IERH,≤ 0.25
17,PLYV,≤ 0.25
18,YFNN,≤ 0.25

# Reference: a collection of fitness landscapes (doi:10.1126/science.1257360)
